Results taken from article PMC4336329 (PLoS ONE, 2015).
Screen size: about 310,000 compounds; about 2,200 (0.71%) showed an effect of 50% or more. Effects have a minus sign here. Some of the results follow.

Each compound was assayed against human ether-à-go-go-related gene (hERG) potassium channel (human, UniProt Q12809) (assay: primary screen, population patch clamp on CHO cells stably expressing hERG).
Sequence of human ether-à-go-go-related gene (hERG) potassium channel (Q12809 whole entry, looked up): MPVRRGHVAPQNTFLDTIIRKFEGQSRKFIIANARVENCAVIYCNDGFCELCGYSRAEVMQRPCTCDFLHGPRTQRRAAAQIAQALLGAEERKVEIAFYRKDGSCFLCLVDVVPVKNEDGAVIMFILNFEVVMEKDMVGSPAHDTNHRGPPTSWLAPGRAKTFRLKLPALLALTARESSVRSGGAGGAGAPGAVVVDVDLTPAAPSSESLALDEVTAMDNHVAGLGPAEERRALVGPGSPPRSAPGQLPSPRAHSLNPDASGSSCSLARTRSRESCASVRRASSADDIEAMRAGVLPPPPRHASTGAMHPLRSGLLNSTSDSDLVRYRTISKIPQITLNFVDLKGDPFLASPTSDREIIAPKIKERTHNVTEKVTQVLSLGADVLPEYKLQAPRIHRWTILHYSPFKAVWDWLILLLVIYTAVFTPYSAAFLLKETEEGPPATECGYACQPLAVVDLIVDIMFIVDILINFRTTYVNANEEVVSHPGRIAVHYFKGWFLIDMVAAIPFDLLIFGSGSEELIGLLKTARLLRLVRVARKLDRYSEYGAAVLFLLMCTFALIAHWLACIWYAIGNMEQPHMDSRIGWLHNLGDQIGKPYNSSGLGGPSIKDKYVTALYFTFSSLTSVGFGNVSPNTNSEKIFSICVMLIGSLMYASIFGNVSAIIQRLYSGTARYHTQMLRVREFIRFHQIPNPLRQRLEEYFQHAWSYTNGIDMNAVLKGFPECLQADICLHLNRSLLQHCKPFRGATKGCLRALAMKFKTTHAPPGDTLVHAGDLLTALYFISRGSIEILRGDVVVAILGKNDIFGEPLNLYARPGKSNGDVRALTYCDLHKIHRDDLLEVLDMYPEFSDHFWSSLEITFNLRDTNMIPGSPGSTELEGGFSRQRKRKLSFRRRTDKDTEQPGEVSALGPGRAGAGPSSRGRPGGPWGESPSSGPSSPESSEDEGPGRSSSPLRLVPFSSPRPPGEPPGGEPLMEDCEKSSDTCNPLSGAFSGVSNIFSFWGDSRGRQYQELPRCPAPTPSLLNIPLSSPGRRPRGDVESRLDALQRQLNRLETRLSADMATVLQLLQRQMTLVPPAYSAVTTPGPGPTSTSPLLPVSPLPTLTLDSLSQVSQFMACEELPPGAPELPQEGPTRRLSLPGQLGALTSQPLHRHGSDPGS

| SMILES | hERG current change (%, negative = inhibition) at 1uM [%] |
| --- | --- |
| CC1CCCC(C)N1C(=O)COC(=O)c1ccc2c(c1)OCO2 (stereo not drawn) | 12 |
| CCC(=O)NC(c1ccc(Cl)cc1Cl)c1ccc2cccnc2c1O (stereo not drawn) | 7.91 |
| CCOC(=O)N1CCC(n2c(SCC(=O)N3CCC(C)CC3)nc3ccccc3c2=O)CC1 | 0.505 |
| CC1CCCN(C(=O)CSc2cnc3ccccc3n2)C1 (stereo not drawn) | -9.88 |
| O=C(c1cnn(-c2ccccc2)c1)c1ccc2ccccc2c1O | 11.3 |
| Cc1cc(C)n(-c2nc3c(c(=O)[nH]c(=O)n3C)n2CC(O)c2ccccc2)n1 (stereo not drawn) | -0.0387 |
| CC(=O)Oc1ccccc1-n1c(C)nc(=O)c(-c2ccccc2)c1C | 9.04 |
| CC(NC(=O)c1ccccc1F)c1nnc(SCC(=O)NC2CCCCC2)n1C (stereo not drawn) | 15.9 |
| OCCN(CC(O)COc1ccccc1)CC(O)Cn1ccc2ccccc21 (stereo not drawn) | -3.64 |
| COc1ccc(/C=N/NC(=O)c2ccc(=O)n(C)c2)cc1OC | 8.72 |
| CCC(C)(C)NC(=O)c1cc([N+](=O)[O-])ccc1N1CCOCC1 | -11.8 |
| CS(=O)(=O)N1CCC(C(=O)N2CCN(c3ccc(F)cc3)CC2)CC1 | 7.16 |
| CCOc1ccccc1OCCCC(=O)N(CC)CC(=O)Nc1c(F)cccc1F | 6.63 |
| Cc1ccc(CN2CCN(CC(=O)NCc3ccc(Cl)cc3)C2=O)cc1 | -7.7 |
| Cc1ccc(C(=O)Cn2nc(C(=O)O)c3ccccc3c2=O)cc1C | 12.9 |
| Cc1ccc(C)c(OCCNc2ccc([N+](=O)[O-])cn2)c1 | 13.1 |
| CCc1ccc(N(CC)C(=O)c2ccc3c(Cl)c4c(nc3c2)CCC4)cc1 | 14.5 |
| OCCCn1c(CCCNc2nc(-c3cccc(Br)c3)cs2)nc2cc(Cl)c(N3CCCCC3)cc21 | 9.36 |
| CC1(C)Cc2c(C#N)c(SCC(=O)c3ccccc3)nc(N3CCOCC3)c2CS1 | 13 |
| CC(=O)C(=Cc1ccc(O)cc1)C(C)=O | 15.2 |
| CCC(=O)Nc1ccc(/C(C)=N\NC(=O)c2ccc(OC)cc2)cc1 | -0.17 |
| CC(=O)N1c2ccc(S(=O)(=O)NCc3ccco3)cc2CC1C (stereo not drawn) | 14.1 |
| O=C(CSCc1ccccc1Cl)NCCSc1ccccn1 | 19.7 |

| SMILES | hERG current change (%, negative = inhibition) at 1uM [%] |
| --- | --- |
| Cc1cccc(/C=N/n2c(-c3cc(-c4ccccc4)n[nH]3)n[nH]c2=S)c1 | 5.86 |
| CCOC(=O)c1cc(C#N)c(N2CCN(C)CC2)nc1-c1ccccc1 | -12.5 |
| Cc1cccnc1-n1c(C)nc2ccccc2c1=O | 7.55 |
| CC(C)(C)n1nnnc1CN1CCC(NC(=O)NC2CCCCC2)CC1 | -9.18 |
| CC(C)C(NC(=S)NCc1ccccc1)C(=O)O (stereo not drawn) | 12.7 |
| O=C(CCN1C(=O)/C(=C\c2ccccc2)SC1=S)NNC(=O)c1ccncc1 | 18.1 |
| CCOC(=O)c1nnsc1Nc1ccc(C)c(C)c1 | 17.9 |
| CCN(CCN(C)C)C(=O)c1ccc2c(c1NCCO)C(=O)c1ccccc1C2=O | 3.03 |
| CCOC(=O)c1c(C)[nH]c(C(=O)CC(=O)OC)c1C | 18.7 |
| COc1ccc(OC)c(N(CC(=O)Nc2ccc3c(c2)OCCO3)S(C)(=O)=O)c1 | 10.9 |
| COc1ccc(-c2cc3c(nn2)-c2ccccc2C3=O)cc1 | 7.89 |
| Cn1cc(SCC(=O)N2CCN(c3ccccc3)CC2)c2ccccc21 | 13.9 |
| CCS(=O)(=O)C1=NN2C(=N)/C(=C\c3ccc(OS(=O)(=O)c4ccccc4)cc3)C(=O)N=C2S1 | 16.5 |
| CC(C)c1nnc(NC(=O)c2cccc(-n3cnnn3)c2)s1 | 14.1 |
| O=C(O)c1cc(-c2ccc3c(c2)OCCO3)n[nH]1 | 9.49 |
| c1ccc2[nH]c(SCc3ccc(-c4nnco4)cc3)nc2c1 | 12.3 |
| NNC(=O)C(Cc1ccc(O)cc1)N1Cc2ccccc2C1=O (stereo not drawn) | 7.99 |
| COc1ccccc1CCC(=O)OCc1csc(CC(=O)Nc2ccccc2C)n1 | -3.76 |
| CN1CCN(/N=C/c2c(O)n(CCC3=CCCCC3)c(=S)[nH]c2=O)CC1 | -4.43 |
| Nc1cc([N+](=O)[O-])ccc1O | 3.14 |
| Cc1nn(-c2ccc(Cl)c(Cl)c2)c(C)c1C(=O)O | 13.8 |
| CSc1nc2n(n1)C(C)C1=C(CCCC1=O)N2 (stereo not drawn) | 21.1 |
| O=C(O)c1ccccc1NS(=O)(=O)c1cccc2cccnc12 | -11.3 |

| SMILES | hERG current change (%, negative = inhibition) at 1uM [%] |
| --- | --- |
| Cc1cccc(N2C(=O)c3cccc(Oc4ccc(Cl)cc4)c3C2=O)c1 | 11.6 |
| CN(C)S(=O)(=O)c1cccc(NC(=O)c2ccc3nccnc3c2)c1 | 2.06 |
| O=C(CN(CC1CCCO1)C(=O)CNS(=O)(=O)c1ccc(Cl)cc1)NC1CCCCC1 (stereo not drawn) | 10.4 |
| O=C(c1cnn2ccccc12)N(Cc1ccco1)C1CCCC1 | 16.6 |
| COc1ccc(Cl)cc1C(=O)C1CCCN(Cc2cnc(C)s2)C1 (stereo not drawn) | -12.3 |
| O=C(N=Nc1c(O)[nH]c(=O)[nH]c1=O)C1COc2cc3ccccc3cc2O1 (stereo not drawn) | 13.6 |
| Cc1ccc(NC(=O)CSc2nnc([C@H](C)NC(=O)OC(C)(C)C)o2)c(C)c1 | 4.89 |
| COc1ccc(CSc2n[nH]c(C)n2)cc1[N+](=O)[O-] | 19.3 |
| Cc1cc(C)nc(NC(=O)/C=C/c2ccccc2Cl)n1 | 4.95 |
| CC1=Cc2ccccc2C(C#N)N1C(=O)c1ccccc1 (stereo not drawn) | 2.9 |
| COc1ccccc1CNS(=O)(=O)c1ccc(-n2cnnn2)c(C)c1 | 11.6 |
| Nc1c(Cl)cc(-c2csc(NCCc3nc4cc(Cl)c(Cl)cc4n3CCCO)n2)cc1Cl | 18 |
| O=C(NC1CC1)C1CCN(c2ccc(S(=O)(=O)N3CCOCC3)cc2)CC1 | 0.269 |
| Cc1csc(SCC(=O)N(C)CC(=O)Nc2ccccc2Cl)n1 | 5.27 |
| CC1NC(=S)N(Cc2ccccc2)C1=O (stereo not drawn) | 7.95 |
| Cn1cc(C=C2C(=O)CC(C)(C)CC2=O)c2ccccc21 | 12.2 |
| Cc1ccccc1Cc1c(C)nc2nc(SCC(=O)NCCCN3CCCC3)nn2c1C | 11.6 |
| Cc1cc(C(=O)NC2=NCCS2)c2ccccc2n1 | 4.91 |
| CC12CCCC[C@@H]1CCC1C2CCC2(C)C1CC[C@@]2(O)CNCCO (stereo partly drawn) | 13.5 |
| CCCC/C(C)=N/NC(=O)CN(c1ccc(Br)cc1)S(=O)(=O)c1ccccc1 | 2.04 |
| COc1cccc(CNC(=O)C(NS(=O)(=O)c2ccc3c(c2)CCN3C(C)=O)C(C)C)c1 (stereo not drawn) | 16.2 |
| CN(C)S(=O)(=O)c1ccc(N2CCOCC2)nc1 | 0.573 |
| CN(C)CCN1C(=O)C(O)=C(C(=O)c2cc3ccccc3o2)C1c1ccc(N(C)C)cc1 (stereo not drawn) | 6.1 |

| SMILES | hERG current change (%, negative = inhibition) at 1uM [%] |
| --- | --- |
| O=C(N/N=C/c1ccccc1OC(F)F)C1=COCCO1 | 1.54 |
| Cc1ccc(N2C(=O)CC(NNc3nc4ccccc4s3)C2=O)cc1 (stereo not drawn) | -0.62 |
| Cc1cccc2cc(C#N)c(SCC(=O)N3CC(=O)Nc4ccccc43)nc12 | 8.82 |
| CCCN(CC(=O)Nc1ccccc1C)C(=O)c1ccc(-c2ccccc2)cc1 | 11.3 |
| CC(=O)c1cccc(NC(=O)c2c(C)nn(-c3ccccc3)c2Cl)c1 | 5.91 |
| CCOC(=O)C1(Cc2ccc(Cl)cc2)CCN(C(C)CCn2cccn2)CC1 (stereo not drawn) | -87.1 |
| CC(C)n1c(SCc2cc(=O)[nH]c3ccccc23)nc2c1c(=O)n(C)c(=O)n2C | 9.91 |
| N#Cc1ccc(-n2c(-c3ccccc3)nnc2-c2ccccc2)cc1C#N | 3.43 |
| COC(=O)CSC1=C(C#N)C(c2ccc3c(c2)OCO3)C2=C(CCCC2=O)N1 (stereo not drawn) | 3.85 |
| Cl.Nn1cnnc1N/N=C/c1ccc(Cl)c([N+](=O)[O-])c1 | 4.91 |
| CCC(C(=O)NCc1cccnc1)c1ccccc1 (stereo not drawn) | 0.29 |
| COCCN(CC(=O)NCc1ccc(F)cc1)C(=O)CCC(=O)Nc1nccs1 | 8.01 |
| Cc1ccc(C)c(OCC(=O)N2CCCN(C)CC2)c1 | 20.1 |
| COc1ccc(-c2nc(CS(=O)CC(=O)NC3CCCCC3)c(C)o2)cc1OC (stereo not drawn) | -10.7 |
| COCCn1c(=NC(=O)c2ccco2)sc2cc(C(=O)OC)ccc21 | 5.99 |
| COCCNC(=S)N1CCC(Cc2ccccc2)CC1 | 4.89 |
| Cc1c(Nc2nc(-c3ccc(Cl)cc3)cs2)c(=O)n(-c2ccccc2)n1C | 3.28 |
| COc1ccc(C/C(N)=N/OC(=O)Cc2ccccc2)cc1OC | 6.37 |
| S=c1[nH]nc(-c2cc(-c3ccccc3)n[nH]2)n1/N=C/C(Br)=C/c1ccccc1 | 11.1 |
| Cc1cc(=O)oc2c(N)c(O)ccc12 | 8.02 |
| CCOC(=O)c1cc(NC(=O)C2CCCO2)cc(C(=O)OCC)c1 (stereo not drawn) | -1.88 |
